# Reference: PubChem BioAssay AID1345082 (National Center for Advancing Translational Sciences (NCATS), 2018)
# Among all 94,000 compounds or so, about 4,000 (4.3%) were called active. The inconclusive results got no clear call from the source; some entries with a clear call stand among them for comparison. Calls follow the shape of the dose curve; as a rule, active = well fitted inhibition curve with a large enough effect; inconclusive = small, poorly fitted or top-dose-only effect; inactive = no such curve, though single readings can be large or run the other way. A potency beside an inconclusive call is a rough fit, not a confirmed value.
# Assay: Cytotoxic Profiling in NIH 3T3 Cell Line of Diverse Libraries Using Quantitative High-Throughput Screening; also: nearly all actives have a fitted effect of over 55% in size
# Conditions: NIH 3T3 viability, CellTiter-Glo ATP luminescence, 48-72 h; series mostly up to 96.7 µM
# How it was run: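 NIH 3T3 cells at 400 cells/well received 23 nL of compound by pintool and were incubated 48 or 72 h at 37 °C. Viability was read as ATP-coupled CellTiter-Glo luminescence.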
# Potency is read from the fitted curve at half-maximal effect; tags tell the direction and shape of the fitted curve.
row,SMILES,Potency
1,COc1ccccc1NC(=O)c1cc(-c2ccccc2C(F)(F)F)nc2c1cnn2C,"inconclusive: 50.1 µM [inhibitor, single point]"
2,O=C(c1cscn1)N1CCCC(CCc2cccc(F)c2)C1 (stereo not given),"inconclusive: 89.1 µM [inhibitor, partial curve, poor fit]"
3,CCc1cnc(C)nc1N1CCOC(c2ccc(Cl)cc2)C1 (stereo not given),"inconclusive: 10 µM [inhibitor, partial curve, poor fit]"
4,COc1ccccc1OCCNC(=O)C1CCCN(C(=O)c2ccccc2)CCC(=O)NCC1 (stereo not given),inactive
5,OCc1ccc(CN2C[C@H](O)C[C@H]2c2nc(Cc3ccc(F)cc3Cl)no2)o1,inactive
6,C[C@@H]1CN(C(=O)c2ccc3c(c2)NC(C)(CNc2ccccc2)CO3)C[C@H](C)O1 (stereo not given in full),"inconclusive: 89.1 µM [inhibitor, partial curve, poor fit]"
7,COc1ccc2[nH]c3c(c2c1)CCNC31CCN(C(=O)c2cccnc2C)CC1,inactive
8,Cc1ccc(C2Cn3nnc(C(=O)N4CCN(C(=O)c5ccccc5F)CC4)c3CO2)cc1 (stereo not given),inactive
9,COc1cccc(CNC(=O)N2CCCC3(C2)Nc2cccnc2NC3=NC2CCCC2)c1 (stereo not given),"inconclusive: 70.8 µM [inhibitor, single point]"
10,CN(C)c1ccc(C(=O)N2CCN(C(=O)c3ccc(N(C)C)cc3)[C@H](C(=O)N[C@H](Cc3c[nH]c4ccccc34)C(N)=O)C2)cc1,inactive
11,Cc1ccsc1C(=O)N1CCN(C(=O)c2nnn3c2COC(c2ccc(Cl)cc2)C3)CC1 (stereo not given),"inconclusive: 50.1 µM [inhibitor, partial curve, poor fit]"
12,NC(=O)Cc1c[nH]c2ncc(-c3ccccc3F)cc12,"inconclusive: 56.2 µM [inhibitor, partial curve, poor fit]"
13,Cn1cc(CN2CCn3c(nnc3[C@@H]3C[C@@H](O)CN3Cc3cccnc3)C2)c2ccccc21,"inconclusive: 44.7 µM [inhibitor, partial curve, poor fit]"
14,O=C(c1nnc(COc2ccc(F)c(F)c2)n1-c1ccccc1)N1CCC[C@@H]1c1cccc(F)c1,active: 10 µM
15,O=C(NC1CC1)[C@@H]1C[C@H](Oc2ccccc2)CN1C(=O)c1ccncc1,"inconclusive: 79.4 µM [inhibitor, partial curve, poor fit]"
16,CCOC(=O)[C@@H]1[C@@H](OC)C(=O)N(Cc2ccccc2)C12CCN(C(=O)c1cccc(C#N)c1)CC2,inactive
17,Cc1cc(C)n2nc(C(=O)N3CCN4C(=O)CN(C)C(=O)C4C3)cc2n1 (stereo not given),inactive
18,COc1ccc(C(=O)N2CCC3(CC2)CNC(=O)c2ccccc2O3)cc1,inactive
19,Cc1csc(NC(=O)c2nc3c(o2)CCN(Cc2c(F)cccc2F)CC3)n1,"inconclusive: 44.7 µM [inhibitor, partial curve, poor fit]"
20,COc1cccc(-c2cc(-c3ccncc3)c3cncn3c2)c1OC,"inconclusive: 22.4 µM [inhibitor, full curve]"
21,COc1cccc(CN2CC(Oc3ccccc3C(=O)N3CCOCC3)C2)c1,inactive
22,O=C(NC1CCCN(c2cc(-c3ccccc3)[nH]n2)C1)c1ccsc1 (stereo not given),"inconclusive: 56.2 µM [inhibitor, partial curve, poor fit]"

row,SMILES,Potency
1,O=C(C1CCCC1)N1CCc2onc(-c3ccc(C(F)(F)F)cc3)c2C1,"inconclusive: 44.7 µM [inhibitor, partial curve, poor fit]"
2,O=C(CCc1conc1-c1ccccc1F)NCc1ccc(Cl)cc1,"inconclusive: 50.1 µM [inhibitor, partial curve, poor fit]"
3,COc1cc(OC)c(CNC(=O)c2c(C)noc2-c2cc(OC)c(OC)c(OC)c2)c(OC)c1,"inconclusive: 39.8 µM [inhibitor, partial curve, poor fit]"
4,COc1ccc(CN2Cc3cc(NC(=O)c4ccccc4F)ccc3OC(C)C2=O)c(OC)c1 (stereo not given),"inconclusive: 50.1 µM [inhibitor, partial curve, poor fit]"
5,O=C(COc1ccc(Cl)cc1)NC1CCc2n[nH]c(=O)n2CC1 (stereo not given),inactive
6,CCN1c2cc(C(=O)Nc3ccc(Br)cc3)ccc2C(=O)N2CCCCC21 (stereo not given),"inconclusive: 44.7 µM [inhibitor, partial curve, poor fit]"
7,Cn1ncc2c(C(=O)N3CCN(c4ncccn4)CC3)cc(-c3ccccc3)nc21,inactive
8,Cn1ncc(N2CCCC(CC(=O)Nc3cccc(F)c3)C2)cc1=O (stereo not given),"inconclusive: 44.7 µM [inhibitor, partial curve, poor fit]"
9,CC(C)(C)CN1CCOC[C@H]1c1ncc(-c2ccc(Cl)s2)[nH]1,"inconclusive: 100 µM [inhibitor, partial curve, poor fit]"
10,Cn1ncc2c(C(=O)NC3CC3)cc(-c3ccc(Cl)cc3)nc21,active: 79.4 µM
11,CC(=O)Nc1ccc(CN2CCC3(CC2)CC(=O)c2ccccc2O3)cc1,"inconclusive: 39.8 µM [inhibitor, partial curve]"
12,OCC1(Cc2ccccc2Cl)CCN(Cc2cc3ccccc3o2)CC1,"inconclusive: 56.2 µM [inhibitor, partial curve, poor fit]"
13,c1ccc(COC2CCN(c3nccc(-c4cccnc4)n3)CC2)nc1,"inconclusive: 56.2 µM [inhibitor, partial curve, poor fit]"
14,O=C(c1ccccc1)N1CCC(C(=O)N2CCCC(c3nc4ccncc4[nH]3)C2)CC1 (stereo not given),inactive
15,COc1ccc(-c2cc(N3CCCC(NC(=O)c4ccccc4)C3)n[nH]2)cc1 (stereo not given),"inconclusive: 50.1 µM [inhibitor, partial curve, poor fit]"
16,Cc1ccc(-c2nccn3cc(C(=O)NCC(C)C)nc23)cc1,"inconclusive: 50.1 µM [inhibitor, partial curve, poor fit]"
17,O=C(Nc1ccccc1)Nc1ccc([C@H]2OCC(=O)N(Cc3ccncc3)[C@@H]2CO)cc1,"inconclusive: 112 µM [inhibitor, single point]"
18,COCC(=O)N(C)Cc1ccc(F)cc1,inactive
19,O=C(NCC1CCCCC1)c1noc(-c2ccc[nH]c2=O)n1,inactive
20,Cc1cccc(C(=O)N2CCC(C(NC(=O)CC(C)C)C(=O)N3CCCCC3)CC2)c1 (stereo not given),"inconclusive: 56.2 µM [inhibitor, partial curve, poor fit]"
21,COc1ccc(C2(C(=O)N3CCC(Cc4nc(-c5ccccc5)n[nH]4)C3)CC2)cc1 (stereo not given),"inconclusive: 31.6 µM [inhibitor, partial curve, poor fit]"
22,CC(=O)Nc1cccc(-c2cn(C)c(=O)n3cc(COc4ccnn4C)nc23)c1,"inconclusive: 89.1 µM [inhibitor, partial curve, poor fit]"

row,SMILES,Potency
1,COc1ccc(Cn2c(=O)c(C(=O)NCc3cccc(OC)c3)nc3cccnc32)cc1,"inconclusive: 44.7 µM [inhibitor, partial curve, poor fit]"
2,Cc1ccccc1CC(=O)N1CCCC(c2noc(COc3ccccc3)n2)C1 (stereo not given),"inconclusive: 44.7 µM [inhibitor, partial curve, poor fit]"
3,Cc1sc2cc(C(=O)NCC3CC3)[nH]c2c1CN1CCCCC1,"inconclusive: 50.1 µM [inhibitor, partial curve, poor fit]"
4,CCc1ccc(C(=O)N2CCc3[nH]nc(C(=O)N(C)C)c3C2)cc1,inactive
5,O=C(C1CC1)N1CCOc2ccc(CN3CCCC3)cc2C1,inactive
6,O=C(Nc1ccc2c(c1)OCO2)C1CCc2sc(C(=O)N3CCCC3)cc2C1 (stereo not given),active: 22.4 µM
7,O=C(c1ccc(Cl)nc1)N1CCC(c2nn(-c3ccccn3)c(=O)[nH]2)CC1,inactive
8,Cn1cc(-c2cnc(Nc3cncnc3)c3c2CCO3)cn1,active: 100 µM
9,Cc1cccc(CCNC(=O)c2coc(COc3cccc(F)c3F)n2)n1,inactive
10,COc1ccccc1-c1cn2c(n1)CO[C@@H](CNCc1ccc(F)c(F)c1)C2,"inconclusive: 112 µM [inhibitor, single point]"
11,COc1ccccc1-c1cccc(CN2CCC(NC(=O)C(C)(C)C)CC2)c1,"inconclusive: 56.2 µM [inhibitor, partial curve, poor fit]"
12,CS(=O)(=O)N1Cc2ccccc2CC2(CCN(Cc3ccncc3)C2)C1 (stereo not given),inactive
13,O=C(c1ccco1)N1CCC[C@H](n2c(=O)n(CC3CC3)c3cccnc32)C1,inactive
14,CCOC(=O)[C@H]1C[C@]2(CCCCNC2=O)N(C(=O)Cc2ccc(OC)cc2)[C@H]1c1ccco1,"inconclusive: 70.8 µM [inhibitor, single point]"
15,COc1ccc(NC(=O)Cn2cccc2-c2nc(-c3ccc(F)cc3)no2)cc1,"inconclusive: 25.1 µM [inhibitor, full curve]"
16,COCCCNC(=O)c1ccc2nc(-c3cccnc3)oc2c1,"inconclusive: 100 µM [inhibitor, partial curve, poor fit]"
17,O=C(Nc1ccc(Cl)c(Cl)c1)c1cc2n(n1)CC(c1ccc(Cl)cc1)OC2 (stereo not given),"inconclusive: 50.1 µM [inhibitor, partial curve, poor fit]"
18,COc1cccc(CNC(=O)Cn2cccc2-c2nc(-c3ccc(OC)c(F)c3)no2)c1,inactive
19,CNC(=O)C1CCCN1Cc1cccc(-c2cccc(OC)c2)c1 (stereo not given),"inconclusive: 50.1 µM [inhibitor, single point]"
20,COc1ccccc1-c1cccc(CN2CCCC(C(=O)NCc3ccccc3)C2)c1 (stereo not given),"inconclusive: 44.7 µM [inhibitor, partial curve, poor fit]"
21,O=C(NCC1CC1)c1ccc2nnc(-c3ccc(C(F)(F)F)cc3)n2c1,"inconclusive: 44.7 µM [inhibitor, partial curve, poor fit]"
